# Data from publication PMC10668032.
# The other results are listed elsewhere or left out. At the low end of the ranking, values are background and their order means little.
# Molecular target: SIX1 homeodomain (reference allele) (UniProt Q15475)
# Assay: universal protein binding microarray
# Details: Universal all-10-mer PBM (8x60K, AMADID 030236), 300 nM GST-tagged protein, Alexa Fluor 488 anti-GST; buffer, salt, pH and temperature not stated; high values mean tight binding; most listed sequences are background and not binding sites; double strand, one strand shown
row,Sequence,binding signal
1,CAAATCCA,-0.00587 E-score
2,CTCGGAAC,-0.0992 E-score
3,ACCTCCGA,0.027 E-score
4,TAGCAACA,-0.137 E-score
5,AAGTGGGA,-0.0536 E-score
6,CCGAACCA,-0.0252 E-score
7,CAGCCTAC,-0.0926 E-score
8,CTAATGCC,-0.216 E-score
9,ACTGTTAT,-0.128 E-score
10,ACGAATCC,0.153 E-score
11,TTGCCAAA,-0.221 E-score
12,GACTCGCA,-0.113 E-score
13,AATGGGAA,-0.252 E-score
14,AGTAGCAC,-0.157 E-score
15,CGCCCCCG,0.0534 E-score
16,CGTACCAC,-0.0505 E-score
17,CTCTTTAC,-0.109 E-score
18,GGGCAGTA,0.0685 E-score
19,ATGCGTTA,0.139 E-score
20,AATCATGA,-0.0171 E-score
21,CTCCGTCC,-0.109 E-score
22,CATAACAG,-0.117 E-score
23,AACGTGCT,-0.0718 E-score
24,GAATCCTA,0.057 E-score
25,ATAGCCTA,0.157 E-score

row,Sequence,binding signal
1,AGGCTGGA,-0.114 E-score
2,CTACTATA,0.153 E-score
3,AGCGCCGC,-0.177 E-score
4,CTTCGATA,0.342 E-score
5,CCCCCTGA,0.0527 E-score
6,CTCGCACA,-0.15 E-score
7,ATGAACAC,0.0146 E-score
8,CGGACAGC,-0.269 E-score
9,ACTCTCAC,0.0478 E-score
10,TCTAACAA,-0.104 E-score
11,ACTCACAG,-0.198 E-score
12,CTATCTCC,0.217 E-score
13,AAATACGG,0.19 E-score
14,CTGGTTAA,-0.178 E-score
15,AACACACC,0.059 E-score
16,ATCTCAAC,0.233 E-score
17,AATTGGTC,-0.27 E-score
18,AGTACCCA,-0.0339 E-score
19,AACCTGGT,0.0932 E-score
20,CCTACGCA,-0.0678 E-score
21,CTAGTAAC,-0.198 E-score
22,GATGGTAC,-0.0915 E-score
23,ATCCCCTG,0.334 E-score
24,GTTGGATA,0.295 E-score
25,CCCGTACC,0.119 E-score

row,Sequence,binding signal
1,AATAGGTG,0.035 E-score
2,TAGCCGGA,0.116 E-score
3,GAGACCCC,0.235 E-score
4,CAGAATGC,-0.237 E-score
5,ATACTGTA,0.368 E-score
6,GTCTTTCA,-0.141 E-score
7,GCCGAGAC,-0.0478 E-score
8,AACACAAC,-0.0532 E-score
9,GCTTTGCC,-0.239 E-score
10,CACACCAG,0.156 E-score
11,ATTGGACA,0.0441 E-score
12,AAGGATGA,0.0643 E-score
13,GTAAGTAC,-0.131 E-score
14,ACTTTCGC,-0.245 E-score
15,AGATCTTA,0.13 E-score
16,CCACCTTA,-0.159 E-score
17,ATATTGAT,0.341 E-score
18,CGGCGAAA,0.0126 E-score
19,ATATGATG,0.202 E-score
20,AAGACTGT,-0.325 E-score
21,GAGCCGTA,0.175 E-score
22,CTACACTC,0.0392 E-score
23,GTCTTGCA,-0.218 E-score
24,AGGCACAC,-0.187 E-score
25,GGCTGTAC,-0.149 E-score

row,Sequence,binding signal
1,GAGGCGAA,-0.0438 E-score
2,CGATGTTA,-0.0616 E-score
3,GATTGCCA,-0.058 E-score
4,GATAATCA,0.107 E-score
5,AGAGCATG,-0.123 E-score
6,GAGTTCAA,-0.239 E-score
7,AGCGCCGA,-0.147 E-score
8,CAGAGCCA,-0.183 E-score
9,CCGCCATC,0.0425 E-score
10,TAAGTTGA,-0.0998 E-score
11,ATCGACGG,0.0598 E-score
12,CGCAGGCC,-0.12 E-score
13,ATTGGATC,0.365 E-score
14,CTCACGGC,-0.0659 E-score
15,AAAACACG,-0.0412 E-score
16,CCCTAGAG,0.0276 E-score
17,CTGGTAGC,-0.08 E-score
18,CGTAACCC,0.045 E-score
19,ACCCTTCC,0.0963 E-score
20,AGTGCTCA,-0.074 E-score
21,ATCGCACA,0.176 E-score
22,ACCACAGG,-0.226 E-score
23,ACTTTTAC,-0.179 E-score
24,TCGCGCCA,-0.139 E-score
25,ACTGATAA,0.125 E-score

row,Sequence,binding signal
1,CTAATAGC,-0.085 E-score
2,CTCGTTGA,-0.0179 E-score
3,CCGGTTCC,-0.135 E-score
4,AAAACACC,0.013 E-score
5,ACTATACC,0.294 E-score
6,ATCAGAAT,0.119 E-score
7,ATACACAA,0.232 E-score
8,AGCATACG,0.143 E-score
9,ATATGACC,0.189 E-score
10,GCCCGGGC,-0.0884 E-score
11,ATGACGTG,-0.241 E-score
12,CACAGACG,-0.0186 E-score
13,ACTTATGG,-0.158 E-score
14,AGGGTTGG,-0.0556 E-score
15,AATCCATG,0.11 E-score
16,GTAACCGA,0.0197 E-score
17,AACGCTCA,-0.286 E-score
18,ATTAATAA,0.02 E-score
19,TCAAGGAA,0.0366 E-score
20,GCGTGGCC,-0.241 E-score
21,GCTTAGGA,0.00971 E-score
22,CAGTCCGC,-0.287 E-score
23,CGGTCAAC,-0.0276 E-score
24,GTTCTTAA,-0.0751 E-score
25,CCTACCCA,-0.109 E-score

row,Sequence,binding signal
1,CCCGCTGC,-0.102 E-score
2,CCTATTAG,-0.00208 E-score
3,CACGATCG,0.165 E-score
4,AAGAAGAG,-0.0709 E-score
5,TGGTAGAA,-0.121 E-score
6,ATGGAAAC,-0.123 E-score
7,ACCTCACC,-0.147 E-score
8,AGCCTAGC,-0.201 E-score
9,ATTTGCCC,-0.108 E-score
10,AGGAACCG,-0.15 E-score
11,CTTATAAA,-0.0423 E-score
12,GGGGCACC,-0.161 E-score
13,ACGGCTCG,-0.0315 E-score
14,GCGAGTAA,-0.14 E-score
15,CGTCAGAA,-0.139 E-score
16,GGGTCATA,0.158 E-score
17,AGTCCCTA,-0.066 E-score
18,CGACCGCA,-0.113 E-score
19,CTACTAAA,-0.0105 E-score
20,CGTCCATC,-0.0967 E-score
21,AGGGCAAA,-0.16 E-score
22,GCTAGGGA,-0.012 E-score
23,CCGCAAAG,-0.0667 E-score
24,AATAGACG,0.0219 E-score
25,GCGGGTGA,0.00477 E-score

row,Sequence,binding signal
1,CAGACTAC,-0.215 E-score
2,AATGACAG,-0.104 E-score
3,ACACCTGA,0.281 E-score
4,CGGATATC,0.473 E-score
5,GTTGCGTA,-0.0364 E-score
6,TTACAGAA,-0.203 E-score
7,TATCAAGA,0.302 E-score
8,CGAGTGTA,0.0016 E-score
9,AGACTCGC,-0.286 E-score
10,AAACAATC,-0.0138 E-score
11,AAGACTTC,-0.206 E-score
12,AAGCCGGC,-0.0743 E-score
13,GCGACTAC,-0.172 E-score
14,AGGCAGGA,0.109 E-score
15,GCCGATAC,0.42 E-score
16,ATTTGTAC,-0.0801 E-score
17,TGACCGCA,-0.141 E-score
18,AGTACACC,0.209 E-score
19,CCTTGGAG,-0.0126 E-score
20,CAGCCAGA,-0.125 E-score
21,ACCTATCT,0.195 E-score
22,ATCGGTTA,0.265 E-score
